# Data reported in the supplement of paper PMC12217912.
# The other results are listed elsewhere or left out. The full chains were built here from the parent and the listed change. Inactive controls read about 0.05.
# B1: TEV protease; numbered along this chain (parent)
# chain: MGESLFKGPRDYNPISSSICHLTNESDGHTTSLYGIGFGPFIITNKHLFRRNNGTLVVQSLHGVFKVKDTTTLQQHLVDGRDMIIIRMPKDFPPFPQKLKFREPQREERICLVTTNFQTKSMSSMVSDTSCTFPSGDGIFWKHWIQTKDGQCGSPLVSTRDGFIVGIHSASNFTNTNNYFTSVPKNFMELLTNQEAQQWVSGWRLNADSVLWGGHKVFMVKPEEPFQPVKEATQL
# Variants of: B1
# Assay: raw area under fraction-flipped curve 0-4 h after induction (AUC4h, not background-subtracted), DNA-recorder readout of cleavage of the substrate (dimensionless); higher = more cleavage of the substrate by the protease variant
# Conditions: temperature: 34 °C; time window: 0-4 h after rhamnose induction
# Procedure: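 In vivo DNA recorder in E. coli TOP10(DE3) ΔrhaA at 34 °C. Each TEVp single-site mutant (parent TEVp 0) is paired with a single-site variant of the 7-mer TEVs (canonical ENLYFQ|S). The substrate sits between flexible linkers in a Bxb1-sfGFP-TEVs-SsrA fusion, so cleavage stabilises Bxb1 and speeds flipping of a recombination array, read by NGS. The value is the raw area under the fraction-flipped curve over 0-4 h after rhamnose induction (AUC4h), with ≥20 reads per time point. It is not background-subtracted; inactive controls average about 0.047.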
# 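Further: Bxb1 expression induced with 0.2% (w/v) L-rhamnose at OD600 near 0.5, cultures sampled hourly, flipped fraction per protease–substrate barcode pair counted by paired-end Illumina sequencing.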
Variant,area with substrate ECLYFQS,area with substrate EMLYFQS,area with substrate EVLYFQS,area with substrate EHLYFQS,area with substrate ELLYFQS,area with substrate EPLYFQS,area with substrate ERLYFQS,area with substrate ESLYFQS,area with substrate EWLYFQS,area with substrate EDLYFQS
D79Q,0.0715,0.0639,0.115,,,,,,,
L5T,0.11,0.131,0.105,0.0876,0.136,0.127,0.116,0.118,0.145,
F92K,0.114,0.0859,,,,,,,,0.0882
F92L,0.108,0.104,0.0827,0.136,0.11,0.114,0.0989,,,
L235T,,,0.104,,,,0.101,0.12,,
L235P,,,0.0988,,,0.104,0.105,0.112,,
L235C,,0.106,0.0866,,,,,,,
G35T,0.0452,0.0526,,,,0.0419,,0.064,0.0394,0.0396
G35D,0.0413,,,,,,,0.0365,,
G35A,0.11,,0.0831,,,,,,,0.129
F65P,0.0486,,0.0454,0.0468,0.0454,0.0528,,0.0481,0.051,0.0641
E3W,0.0952,0.112,0.103,0.134,,0.195,0.109,,0.138,
S209N,,,0.065,,,,,,,
S209E,,,0.0984,,0.111,,,0.109,0.115,
S18G,0.111,0.0988,0.0855,0.101,0.0894,,0.1,0.0907,,
D27E,0.107,,0.1,,,,0.091,,,
W199Y,,,,0.0456,,,0.0652,,0.0457,
Q227A,,,,,,,,,,0.114
H76T,0.0566,,,,,,0.0531,,0.0468,
K185N,,0.111,,0.103,,0.134,,,,
F38V,0.102,0.111,0.099,,0.0607,0.11,,,0.0827,
K66Q,0.0757,0.133,,,,,,,,0.15

# Same assay, conditions: temperature: 34 °C; time window: 0-4 h after rhamnose induction
Variant,area with substrate EGLYFQS,area with substrate EFLYFQS,area with substrate EKLYFQS,area with substrate EQLYFQS,area with substrate EALYFQS,area with substrate EYLYFQS,area with substrate EILYFQS,area with substrate ETLYFQS,area with substrate EELYFQS
F92K,0.0809,,,,,,,,
F92L,,0.116,0.0893,0.157,,,,,
L235T,0.122,,0.124,0.0899,0.132,0.0641,,,
L235P,0.109,,0.145,0.132,0.0564,,0.0929,,
L235C,0.0826,0.0918,,,0.0897,0.0833,0.0683,0.119,
G35T,,,0.0469,0.0452,,,0.0422,,
G35D,,0.0534,,,,,0.0407,,
G35A,,,,0.103,,,,,
F65P,,0.0719,0.0472,0.0573,,0.0319,0.043,0.0332,0.0536
E3W,,0.0977,0.0339,,,0.0988,0.0674,,
S209N,,0.0522,0.0881,,0.125,,0.0855,,
S209E,0.0658,,0.129,,0.129,,,,0.148
S18G,0.0785,,0.104,0.0807,,,0.0863,,
D27E,,,0.0972,,,,0.117,,0.133
W199Y,,,0.0584,,0.0584,,0.0768,0.0829,
Q227A,,,,,0.122,,,,
H76T,0.0493,,,,,,0.0697,,
K185N,0.0713,,,,0.114,,0.0937,,0.143
F38V,0.0928,,,,,0.115,0.0805,,
K66Q,0.0777,,0.0906,,,,0.111,,
